Reference: the supplement of paper PMC8728848
Only a selection was taken, and the strongest signals are over-represented in it overall.

What was measured:
Test in all cases: glycan array binding signal (z-score within array); higher = stronger binding
Settings in all cases: glycan notation: IUPAC condensed, linker removed
[1] = molecular target: Gal(b1-4)GlcNAc(b1-3)Gal(b1-4)GlcNAc(b1-2)[Gal(b1-4)GlcNAc(b1-3)Gal(b1-4)GlcNAc(b1-6)]Man(a1-6)[Gal(b1-4)GlcNAc(b1-3)Gal(b1-4)GlcNAc(b1-2)Man(a1-3)]Man(b1-4)GlcNAc(b1-4)[Fuc(a1-6)]GlcNAc
Method in brief: (§1)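 Glycan array binding is given as a within-array Z-score, which can be read as non-binding when negative. The arrays, 3228 of them, came from the Consortium for Functional Glycomics database and were retained only where the protein sequence was available. Z-scores were averaged across arrays of the same protein sequence at different concentrations or buffers and across linkers.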

[2] = molecular target: Gal3S(b1-3)[Fuc(a1-4)]GlcNAc
Method in brief: as §1

[3] = molecular target: GlcNAc(a1-3)Gal(b1-4)GlcNAc
Method in brief: as §1

[4] = molecular target: GlcNAc(b1-2)Man(a1-3)[GlcNAc(b1-4)][GlcNAc(b1-2)Man(a1-6)]Man(b1-4)GlcNAc(b1-4)GlcNAc
Method in brief: as §1

[5] = molecular target: GlcNAc(b1-2)[GlcNAc(b1-4)]Man(a1-3)[GlcNAc(b1-2)Man(a1-6)]Man(b1-4)GlcNAc(b1-4)GlcNAc
Method in brief: as §1

[6] = molecular target: GlcNAc(b1-3)Gal(b1-4)Glc
Method in brief: as §1

[7] = molecular target: GlcNAc(b1-3)Gal(b1-4)GlcNAc(b1-3)Gal(b1-4)GlcNAc(b1-3)GalNAc
Method in brief: as §1

[8] = molecular target: GlcNAc(b1-3)Man
Method in brief: as §1

[9] = molecular target: GlcNAc(b1-3)[GlcNAc(b1-4)][GlcNAc(b1-6)]GlcNAc
Method in brief: as §1

[10] = molecular target: GlcNAc6S(b1-3)Gal(b1-4)GlcNAc
Method in brief: as §1

[11] = molecular target: Man(a1-2)Man(a1-2)Man(a1-3)Man
Method in brief: as §1

[12] = molecular target: Man(a1-2)Man(a1-2)Man(a1-6)[Man(a1-3)]Man
Method in brief: as §1

[13] = molecular target: Man(a1-2)Man(a1-3)Man
Method in brief: as §1

[14] = molecular target: Man(a1-2)Man(a1-3)[Man(a1-2)Man(a1-6)]Man
Method in brief: as §1

[15] = molecular target: Man(a1-2)Man(a1-3)[Man(a1-2)Man(a1-6)]Man(a1-6)[Man(a1-2)Man(a1-2)Man(a1-3)]Man
Method in brief: as §1

[16] = molecular target: Man(a1-2)Man(a1-6)[Man(a1-3)]Man(a1-6)[Man(a1-2)Man(a1-2)Man(a1-3)]Man
Method in brief: as §1

[17] = molecular target: Man(a1-2)Man(a1-6)[Man(a1-3)]Man(a1-6)[Man(a1-2)Man(a1-2)Man(a1-3)]Man(b1-4)GlcNAc(b1-4)GlcNAc
Method in brief: as §1

[18] = molecular target: Neu5Ac(a2-3)Gal(b1-3)[GlcNAc(b1-6)]GalNAc
Method in brief: as §1

[19] = molecular target: Neu5Ac(a2-3)Gal(b1-4)GlcNAc(b1-3)Gal(b1-4)GlcNAc(b1-2)Man(a1-3)[Neu5Ac(a2-3)Gal(b1-4)GlcNAc(b1-3)Gal(b1-4)GlcNAc(b1-2)Man(a1-6)]Man(b1-4)GlcNAc(b1-4)GlcNAc
Method in brief: as §1

[20] = molecular target: Neu5Ac(a2-3)Gal(b1-4)[Fuc(a1-3)]GlcNAc(b1-3)Gal(b1-4)GlcNAc
Method in brief: as §1

[21] = molecular target: Neu5Ac(a2-3)Gal6S(b1-4)[Fuc(a1-3)]GlcNAc
Method in brief: as §1

[22] = molecular target: Neu5Ac(a2-3)[GalNAc(b1-4)]Gal(b1-4)Glc
Method in brief: as §1

[23] = molecular target: Neu5Ac(a2-3)[Neu5Ac(a2-6)]GalNAc
Method in brief: as §1

[24] = molecular target: Neu5Ac(a2-6)Gal(b1-4)GlcNAc(b1-2)Man(a1-3)Man(b1-4)GlcNAc(b1-4)GlcNAc
Method in brief: as §1

[25] = molecular target: Neu5Ac(a2-6)Gal(b1-4)GlcNAc(b1-2)[Neu5Ac(a2-6)Gal(b1-4)GlcNAc(b1-4)]Man(a1-3)[GlcNAc(b1-4)][Neu5Ac(a2-6)Gal(b1-4)GlcNAc(b1-2)[Neu5Ac(a2-6)Gal(b1-4)GlcNAc(b1-6)]Man(a1-6)]Man(b1-4)GlcNAc(b1-4)GlcNAc
Method in brief: as §1

[26] = molecular target: Neu5Ac(a2-6)Gal(b1-4)GlcNAc(b1-3)Gal(b1-4)GlcNAc
Method in brief: as §1

[27] = molecular target: Neu5Ac(a2-6)Gal(b1-4)GlcNAc6S
Method in brief: as §1

[28] = molecular target: Neu5Ac(a2-6)GalNAc(b1-4)GlcNAc
Method in brief: as §1

B1: Avaren-Fc (Actinomycete K97) (protein)
chain: ASGTIRNAETGRCLDSNYNGNVYTLPCNGGNYQRWTGPGDGTVRNAETGRCLDSNYDGAVYTLPCNGGSYQKWTGPGDGTIQNAETGRCLDSNYNGNVYTLPCNGGNYQKWTGGGGSV[in this place human IgG1 Fc with changes]
glycan array binding signal (z-score) [1]: -0.139 | glycan array binding signal (z-score) [2]: -0.128 | glycan array binding signal (z-score) [3]: -0.172 | glycan array binding signal (z-score) [4]: -0.183 | glycan array binding signal (z-score) [5]: -0.178 | glycan array binding signal (z-score) [6]: -0.172 | glycan array binding signal (z-score) [7]: -0.173 | glycan array binding signal (z-score) [8]: -0.148 | glycan array binding signal (z-score) [9]: -0.166 | glycan array binding signal (z-score) [10]: -0.178 | glycan array binding signal (z-score) [11]: 11.4 | glycan array binding signal (z-score) [12]: 11.9 | glycan array binding signal (z-score) [13]: 0.661 | glycan array binding signal (z-score) [14]: 5.75 | glycan array binding signal (z-score) [15]: 8.63 | glycan array binding signal (z-score) [16]: 7.24 | glycan array binding signal (z-score) [17]: 6.97 | glycan array binding signal (z-score) [18]: -0.136 | glycan array binding signal (z-score) [19]: -0.15 | glycan array binding signal (z-score) [20]: -0.12 | glycan array binding signal (z-score) [21]: -0.183 | glycan array binding signal (z-score) [22]: -0.177 | glycan array binding signal (z-score) [23]: -0.171 | glycan array binding signal (z-score) [24]: -0.15 | glycan array binding signal (z-score) [25]: -0.178 | glycan array binding signal (z-score) [26]: -0.181 | glycan array binding signal (z-score) [27]: -0.186 | glycan array binding signal (z-score) [28]: -0.179
